Data: the supplement of paper PMC6089552
Hit rate of the full screen: of about 3,200 compounds, about 300 (9.4%) showed activity. Only a part is listed here, and it is no random draw.

Tested on: A673/TR/shEF
Assay: cell viability (LOESS-normalised, relative to median of negative controls) (log2 ratio); higher = more viable cells (less compound effect), active = hit call of the paper (over 3 MAD below the median)
Details: treatment time: 72 h
In short: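 For three days, A673/TR/shEF Ewing sarcoma cells in 384-well plates (1,500 per well) were treated with library compounds at two or more concentrations or with DMSO controls, after doxycycline had been added or withheld 24 h beforehand to induce EWS-FLI1 shRNA knockdown. Viability was read by CellTiter-Glo luminescence on an Envision reader. The data were LOESS-corrected per plate, divided by the median of negative controls and log2-transformed.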

[1] = 0.25 µM, library screen: screen1, EWS-FLI1 expression: high (no doxycycline)
[2] = 0.25 µM, library screen: screen1, EWS-FLI1 expression: low (doxycycline-induced shRNA knockdown)
[3] = 2.5 µM, library screen: screen1, EWS-FLI1 expression: high (no doxycycline)
[4] = 2.5 µM, library screen: screen1, EWS-FLI1 expression: low (doxycycline-induced shRNA knockdown)
[5] = 0.25 µM, library screen: screen2, EWS-FLI1 expression: high (no doxycycline)
[6] = 0.25 µM, library screen: screen2, EWS-FLI1 expression: low (doxycycline-induced shRNA knockdown)
[7] = 2.5 µM, library screen: screen2, EWS-FLI1 expression: high (no doxycycline)
[8] = 2.5 µM, library screen: screen2, EWS-FLI1 expression: low (doxycycline-induced shRNA knockdown)
[9] = 0.103 µM, library screen: screen3, EWS-FLI1 expression: high (no doxycycline)
[10] = 0.103 µM, library screen: screen3, EWS-FLI1 expression: low (doxycycline-induced shRNA knockdown)
[11] = 0.308 µM, library screen: screen3, EWS-FLI1 expression: high (no doxycycline)
[12] = 0.308 µM, library screen: screen3, EWS-FLI1 expression: low (doxycycline-induced shRNA knockdown)
[13] = 0.926 µM, library screen: screen3, EWS-FLI1 expression: high (no doxycycline)
[14] = 0.926 µM, library screen: screen3, EWS-FLI1 expression: low (doxycycline-induced shRNA knockdown)
[15] = 2.8 µM, library screen: screen3, EWS-FLI1 expression: high (no doxycycline)
[16] = 2.8 µM, library screen: screen3, EWS-FLI1 expression: low (doxycycline-induced shRNA knockdown)
[17] = 8.3 µM, library screen: screen3, EWS-FLI1 expression: high (no doxycycline)
[18] = 8.3 µM, library screen: screen3, EWS-FLI1 expression: low (doxycycline-induced shRNA knockdown)
[19] = 25 µM, library screen: screen3, EWS-FLI1 expression: high (no doxycycline)
[20] = 25 µM, library screen: screen3, EWS-FLI1 expression: low (doxycycline-induced shRNA knockdown)
[21] = 25 µM, library screen: screen1, EWS-FLI1 expression: high (no doxycycline)

Measured: cell viability (log2)

N#Cc1c2c(c(NCCCO)n3c1nc1ccccc13)CCC2
inactive: [1] 0.146 | [2] 0.012 | [3] 0.0888 | [4] -0.0597

CCCN(CCc1ccccc1)C1CCc2c(O)cccc2C1 (configuration not stated)
inactive: [5] 0.155 | [6] 0.0701 | [7] 0.202 | [8] 0.0389

CCOc1c(Br)cc(C=C(C#N)c2nn(-c3ccccc3)c(N)c2C#N)cc1OC
inactive: [1] 0.0856 | [2] 0.124 | [3] 0.0719 | [4] 0.193

C=CCSCC1Nc2cc(Cl)c(S(N)(=O)=O)cc2S(=O)(=O)N1 (configuration not stated)
inactive: [1] 0.0566 | [2] 0.0785 | [3] 0.164 | [4] 0.197

NC(=O)c1cccc(N)c1
inactive: 0.025 µM, library screen: screen2, EWS-FLI1 expression: high (no doxycycline) 0.0854 | 0.025 µM, library screen: screen2, EWS-FLI1 expression: low (doxycycline-induced shRNA knockdown) 0.0286 | [1] 0.13 | [2] 0.119 | [5] 0.0163 | [6] 0.0531 | [3] 0.159 | [4] 0.058 | [7] 0.0872 | [8] 0.0704 | 25 µM, library screen: screen2, EWS-FLI1 expression: high (no doxycycline) 0.0853 | 25 µM, library screen: screen2, EWS-FLI1 expression: low (doxycycline-induced shRNA knockdown) 0.059

C=C1CCC2C(CC2(C)C)C(=C)CCC1=NO (configuration not stated)
inactive: [1] 0.105 | [2] 0.00367 | [3] 0.133 | [4] 0.0769

CC(=O)Oc1ccc(-c2coc3cc(OC(C)=O)ccc3c2=O)cc1
inactive: [1] 0.152 | [2] 0.0716 | [3] 0.0709 | [4] 0.0455

CCN(c1nc(N)c(C(=O)N=C(N)N)nc1Cl)C(C)C
inactive: [5] 0.177 | [6] 0.139 | [7] 0.148 | [8] 0.132

c1ccc(CN(CC2=NCCN2)c2ccccc2)cc1
inactive: [1] 0.132 | [2] 0.106 | [3] 0.116 | [4] 0.19

CN(C)CC/C=C1/c2ccccc2COc2ccc(CC(=O)O)cc21
inactive: [9] 0.0714 | [10] 0.0905 | [11] 0.0643 | [12] 0.117 | [13] 0.113 | [14] 0.0761 | [15] 0.0348 | [16] 0.0276 | [17] 0.115 | [18] 0.0583 | [19] 0.106 | [20] 0.116

O=C(O)C1=CCCN(CCON=C(c2ccccc2)c2ccccc2)C1
inactive: [5] 0.0519 | [6] 0.0703 | [7] 0.0659 | [8] 0.119

Cn1c(=O)[nH]c2nc[nH]c2c1=O
inactive: [1] 0.0262 | [2] 0.135 | [3] 0.103 | [4] 0.0812

CC12CCC3c4ccc(OCc5ccccc5)cc4CCC3C1C[C@@H](O)[C@@H]2O (some centres not stated)
inactive: [1] 0.0858 | [2] 0.0634 | [3] 0.147 | [4] 0.17

O=C(/C=C/c1ccc(O)c(O)c1)O[C@@H]1C[C@](O)(C(=O)O)C[C@@H](O)[C@H]1O
inactive: [1] 0.0547 | [2] 0.0452 | [3] 0.128 | [4] 0.0579

C#CCn1c(=O)c2c(ncn2C)n(C)c1=O
inactive: [5] 0.157 | [6] 0.0727 | [7] 0.134 | [8] 0.0583

COc1cc(O)ccc1C(C)=O
inactive: [1] 0.0494 | [2] 0.0757 | [3] 0.0776 | [4] 0.0818

CC(=O)OCC(=O)[C@H]1CC[C@H]2[C@@H]3CCC4=CC(=O)CC[C@]4(C)[C@H]3CC[C@]12C
inactive: [1] 0.0794 | [2] 0.132 | [3] 0.162 | [4] 0.198

Cc1cc(=O)c2c(o1)-c1c(cc(O)c(O)c1C(=O)O)OC2
inactive: [1] 0.0145 | [2] 0.0255 | [3] 0.0451 | [4] 0.0692

C#C[C@]1(O)CC[C@H]2[C@@H]3CCC4=CC(=O)CC[C@@H]4[C@H]3CC[C@@]21CC
inactive: [9] 0.0798 | [10] -0.0216 | [1] 0.0123 | [2] 0.0749 | [11] 0.127 | [12] 0.0715 | [13] 0.122 | [14] 0.0282 | [3] 0.115 | [4] 0.14 | [15] 0.047 | [16] 0.104 | [17] 0.0644 | [18] 0.0886 | [19] 0.129 | [20] 0.111

N#C/C(=C\c1ccc(O)c(O)c1)C(=O)NCc1ccccc1
active: [3] -0.573 | [4] -0.157 | [21] -0.423

CC(CN(C)C)CN1c2ccccc2Sc2ccccc21 (configuration not stated)
inactive: [1] 0.0891 | [2] 0.0723 | [3] 0.192 | [4] 0.305

CCCCC/C=C\C/C=C\C/C=C\C/C=C\CCCC(=O)O
inactive: [1] 0.053 | [2] 0.0191 | [3] 0.0785 | [4] 0.0823

CCCCCCCCCCCCCCCC(=O)C1=C(O)[C@@H](CO)OC1=O
active: [3] -0.362 | [21] -0.293
inactive: 0.025 µM, library screen: screen1, EWS-FLI1 expression: high (no doxycycline) 0.213 | 0.025 µM, library screen: screen1, EWS-FLI1 expression: low (doxycycline-induced shRNA knockdown) 0.0909 | [1] 0.235 | [2] 0.112 | [4] 0.0271 | 25 µM, library screen: screen1, EWS-FLI1 expression: low (doxycycline-induced shRNA knockdown) -0.135

CC[C@@H](CO)NCCN[C@@H](CC)CO
inactive: [1] 0.144 | [2] 0.0523 | [3] 0.138 | [4] 0.0729

CC(N=C(NC#N)Nc1ccncc1)C(C)(C)C (configuration not stated)
inactive: [1] 0.0731 | [2] 0.0325 | [5] 0.123 | [6] 0.0828 | [3] 0.0614 | [4] 0.104 | [7] 0.0499 | [8] 0.131

CCC(C(=O)C(C)C(O)C(C)CCc1ccc(C)c(O)c1C(=O)O)C1OC(CC)(C2CCC(O)(CC)C(C)O2)CC1C (configuration not stated)
inactive: [1] 0.0934 | [2] 0.0794 | [3] -0.023 | [4] 0.0924

CC[N+](CC)(CC)CC(=O)Nc1c(C)cccc1C
inactive: [5] 0.105 | [6] 0.169 | [7] 0.0372 | [8] 0.0518

COc1cc(-c2ccc(=O)[nH]n2)ccc1OC(F)F
inactive: [5] 0.112 | [6] 0.0688 | [7] 0.219 | [8] 0.00894
